Source: paper PMC12136788
The other results are listed elsewhere or left out.

B1: chr8:17156679:17156680:-_ENSG00000003987_ENST00000180173|hu_hu|FALSE|FALSE (ssRNA)
RNA: GGGAGUUCUACAGUCCGACGAUCAUACUUAAAUUCAUAUGUAAGACCAGGAGAAUGAAUGUUGCUUCUACCUCGUUAGCUAUUAAAUCAGUGUUAGAGAAAAAGUGAGAUACAAGGUUUAGCAUUUUUAAAUAAUGAGGAGAACAACAGAGGAUUGAGCAUCA
B2: chr4:144460044:144460045:+_ENSG00000153147_ENST00000283131|hu_mus|hu_hu_hu_mus_False|8_28 (ssRNA)
RNA: GGGAGUUCUACAGUCCGACGAUCACGGUCCAUAGCCUGAAGAUCAACUUGCGGAUUCCAAUCUGAGUCAUAUAAAAUGACUACAUCAGCAGUUGCAAGAUUGAUGCCAAGACCACCAGCACGUGUGCUUAACAUGAAUACAAACAACAGAGGAUUGAGCAUCA
B3: chr2:198351390:198351391:-_ENSG00000144381_ENST00000345042|hu_hu|hu_hu_hu_mus_False|18_78 (ssRNA)
RNA: GGGAGUUCUACAGUCCGACGAUCUCAUUCCCACCCUCCACAGAAAGGCUGCUUCUGUUCUCAUCUGUGGUGACACAGCGCUACAGUCCUGAUGCUCACAGAACAGUAGAGAUGCCUCCUCAGUGAUAGUUGAAAGCAGGACACCAACAGAGGAUUGAGCAUCA
B4: chr7:151048522:151048523:+_ENSG00000013374_ENST00000566856|hu_mus|hu_hu_hu_mus_True|28_88 (ssRNA)
RNA: GGGAGUUCUACAGUCCGACGAUCCUGUUUCUUAUUUAUUACGAUCUUGAUAUAAUUUUCUUGAAAUCCGAAAGUUUCAGCUAUUUGACACCUCAGGUCUCUACCAGUGAUGUGCAAGCGGGUCUCCAACAAGCUUUUCUUAUCCAACAGAGGAUUGAGCAUCA
B5: chr6:150114741:150114742:+_ENSG00000120265_ENST00000367380|hu_hu|FALSE|FALSE (ssRNA)
RNA: GGGAGUUCUACAGUCCGACGAUCCCCUGAAGACAGAAGUGUUGGAUCGUCCUUCCUGACAUUAUUUACUGAGUCAUCUACUAGCUCUUUAAUGUGAUCAAUUCCUAUGACUUUUCCAGUACAUCCAACCAUACGUGCAAAACACAACAGAGGAUUGAGCAUCA
B6: chr17:64801638:64801639:+_ENSG00000154229_ENST00000413366|hu_mus|hu_hu_hu_mus_False|18_38 (ssRNA)
RNA: GGGAGUUCUACAGUCCGACGAUCUAUAUAUAUAUAUACAUAUGUACACAUAUAUAGUAAAACCCUAGUUAAACGUGUAAAGUAGCCAUUCAUUUUUGAAAUUUUAUCUACAUUAAAAAAGUAAUCUAUCUGAUAGAGUGCCAGCAACAGAGGAUUGAGCAUCA
B7: chr15:39702511:39702512:-_ENSMUSG00000022305_ENSMUST00000022916|mus_mus|FALSE|FALSE (ssRNA)
RNA: GGGAGUUCUACAGUCCGACGAUCUUUUCUUCAAGAUUAUAGCACUGACCCCCUCCCCCAAGAAUAAAAUAUCCUGGAAAAAAAUCACUCUCACAAUAAUGCAGUUUUUAAAUACAACAAAUAAAUAUGAAACCAGCAAAGCAACAACAGAGGAUUGAGCAUCA
B8: chr3:148802587:148802588:-_ENSG00000071794_ENST00000310053|hu_mus|hu_hu_hu_mus_False|38_48 (ssRNA)
RNA: GGGAGUUCUACAGUCCGACGAUCUCCAACAACUUGUCCUCUCAUAGUUCCAAAUAAAACCAAAUCUUGCUCUUCAUCACUCGUUAGAAAGUCAUCUGGAGGGAUAAUGUCUUGGAAUUCAAAAUGUGGCAAGAAAGUUGAGUACAACAGAGGAUUGAGCAUCA
B9: chr6:40197388:40197389:+_ENSMUSG00000057716_ENSMUST00000061740|mus_mus|mus_mus_mus_hu_False|38_78 (ssRNA)
RNA: GGGAGUUCUACAGUCCGACGAUCGAGACACUGGGGUGGAUUUAUUCCACCUCUGUUUGCUAGCCUCCCACUAAGACUGUUAUUUUGGGAUUCAUGGCCUUGAAGAUCAAGAGGGAAAGGAAGAGGAUGGAAAGAGUCAAGAGUCAACAGAGGAUUGAGCAUCA
B10: 31462005_31462125_6649_3pUTR_ENSMUSG00000025609_ENSMUST00000026699|mouse|control|control (ssRNA)
RNA: GGGAGUUCUACAGUCCGACGAUCUGAAAAUUGGUGCUUGGCUAAAACACAAUACAAAGAUAGGGUGACGGCAAAUUUAAGUGUGGUGGAGCACUGGUCUCCAUGAGCUGGCUCUCUUCAGAACCUGGAUACAGCUAACAGUUCCAACAGAGGAUUGAGCAUCA
B11: chr16:94664741:94664742:+_ENSMUSG00000040785_ENSMUST00000117648|mus_hu|mus_mus_mus_hu_False|18_18 (ssRNA)
RNA: GGGAGUUCUACAGUCCGACGAUCUGGUACUGAUCUUGGUAGCUGAUAUUCAGGAGAAAGGCUGGCCAAGGGUGUAUAUAUGCUGGUGUACUGGGGCAAACCUGGUAACACGUUUAUGUACGCUGGUGGUGUCUGGGUGAUAUCCAACAGAGGAUUGAGCAUCA
B12: 52824636_52830982_63_CDS_ENSG00000101132_ENST00000441080|human|control|control (ssRNA)
RNA: GGGAGUUCUACAGUCCGACGAUCUUCUUCCUUCAGCUCUGUGAUUCUACUUGUAUUCCGUGCAAAUUUGUUUAUCUUUUGUUGAUCUUCGAAAGUAACAUUGACAUCUUCUGCAGCCGCCUUCUUCAUGGUGGCCGCCAUCUUCAACAGAGGAUUGAGCAUCA
B13: chr4:115894766:115894767:+_ENSMUSG00000028698_ENSMUST00000030464|mus_hu|mus_mus_mus_hu_True|78_88 (ssRNA)
RNA: GGGAGUUCUACAGUCCGACGAUCUUCCACACGGAAAUGUACUUCGGGUUUCCAACGGCCAGUACAAAGUCCGGCCAAACUACCCGAACAGGGUCCUCCCCCUCUCUCCUACAGAACACAACAAAAUGCCCCCGAACUUUCAAGCAACAGAGGAUUGAGCAUCA
B14: chr10:57235669:57235670:-_ENSMUSG00000019877_ENSMUST00000020027|mus_mus|FALSE|FALSE (ssRNA)
RNA: GGGAGUUCUACAGUCCGACGAUCUUCAGAAUUGUGAAGCAGUAUUAACACAGAGUAAGGCUGGAACAUGAAGAUGAACUGCUAUAGUACAUUUGCACAAUAAAUACUUUUAAAGACACAUGUAGUUCUUUAAAAGCUAGAUACCAACAGAGGAUUGAGCAUCA
B15: chr11:29606707:29606708:+_ENSMUSG00000020458_ENSMUST00000102843|mus_mus|motif|central (ssRNA)
RNA: GGGAGUUCUACAGUCCGACGAUCCAUGGCUGACUCUCCUUUUGGGGAGCCAUUGAAAGAUGAUCCCAUUUCUGAGUAUUCGGAUACUGAAAACUCUGCUGACUCUCUAUUUACAAAUGGAUUUGUUGCCCUCUCUGGCAAUUCCAACAGAGGAUUGAGCAUCA
B16: chr13:31725248:31725249:-_ENSG00000120694_ENST00000320027|perfect_dup|FALSE|FALSE (ssRNA)
RNA: GGGAGUUCUACAGUCCGACGAUCUUUGGAUUUUGCAUCCAAUUUGUACUUGGUUUUAAAUUCAGCACAAAAAUGUUCUACUAGCUUCUCAUCAAAGUUCUUUCCUCCUAAGAAGGGAUCAAAAGCUGUGCCUAGAACCUUCAGCAACAGAGGAUUGAGCAUCA
B17: 96782924_96783505_4140_CDS_ENSG00000066739_ENST00000359933|human|control|control (ssRNA)
RNA: GGGAGUUCUACAGUCCGACGAUCAAAACCUUCAUAUUUUGUCACACAAAAUAAUGAACCACUAUUGAACUCUAACCAGAAUUCACCAUGCUUGUUUUCCAACAGAUCUCCAUUAUCUUGCUUCACAUCUGUGAACACUGCUAUCAACAGAGGAUUGAGCAUCA
B18: chr6:41757443:41757444:+_ENSG00000214736_ENST00000398881|hu_mus|hu_hu_hu_mus_False|58_98 (ssRNA)
RNA: GGGAGUUCUACAGUCCGACGAUCGAACCGUGCAGAGACCAGAGAAUAGCCGACACUGGGGGAUGGGGGGGCAGUGGGAAACUAGGCAGGCAAGGAGAGGGAGUCAACUUCAGCUGCCACUCAGGUAGGAUCUUGUGGUCACAGCAACAGAGGAUUGAGCAUCA
B19: 60832829_60832949_1000_3pUTR_ENSMUSG00000072437_ENSMUST00000088237|mouse|control|control (ssRNA)
RNA: GGGAGUUCUACAGUCCGACGAUCGGCUGUCCCUGUUGCUGCGCGGCGGCGGGCGGACGGUGGGCGGUGGCACUUUGGAGAGCGGGCAAUACUUGAUGGUAUGUGCGUUGUCGCCGCUGGCGCCGCACAGGGGGCACGUGUAGCCAACAGAGGAUUGAGCAUCA
B20: chr14:37946427:37946428:-_ENSMUSG00000041028_ENSMUST00000165649|mus_mus|FALSE|FALSE (ssRNA)
RNA: GGGAGUUCUACAGUCCGACGAUCUGAUGGUUCCAAGGCUGCCUCUUUCAGUUCUUGUCCAGUUUUCCCACGGUGAGUCCUAAUUCUUGUCUUGGUAGCAUAUUCCCUGCUGGGUGUUACGAGCCAUUGGUUCUUUGUGAUGGACAACAGAGGAUUGAGCAUCA
B21: 85877279_85877843_391_CDS_ENSMUSG00000054226_ENSMUST00000067137|mouse|control|control (ssRNA)
RNA: GGGAGUUCUACAGUCCGACGAUCGUUAGUUUCUGAAAUGCCAAAUUUCUUCAAGGCCUCUGAAAUAUUAUUAUUUGGGGAGAGGUUGAAGAUAAUUUCAGUAGACAGAGUUCUUGUCUUCAUUUUUCCCAGUCUGUGGAGAUGCAACAGAGGAUUGAGCAUCA
B22: chr18:24770415:24770416:+_ENSMUSG00000024271_ENSMUST00000025120|mus_mus|FALSE|FALSE (ssRNA)
RNA: GGGAGUUCUACAGUCCGACGAUCACAAACAGGUCCUUCAUGGCCUUGGAGACGGACUGAUUUUAAAACCUGAUUAUUCUCUAGUUCCCAAUGAAUCACCCGAUUGUCAGAUCCUCCAGACACCAGCUCAUUGGAAGGGGAGCCCAACAGAGGAUUGAGCAUCA

The binders below were run against T1, UNK ZnF1-3 (human, UniProt Q9C0B0 31-174) (assay: nsRBNS (natural sequence RNA bind-n-seq); RBNS binding buffer (assumed for nsRBNS): 25 mM Tris pH 7.5, 150 mM KCl, 3 mM MgCl2, 0.01% Triton X-100, 500 ug/ml BSA, 20 U/ml SUPERase-In, 4 C; UNK is unkempt and MSI1 is Musashi-1; names of the RNAs are library labels; protein concentration not given here; high values mean tight binding).
T1 sequence: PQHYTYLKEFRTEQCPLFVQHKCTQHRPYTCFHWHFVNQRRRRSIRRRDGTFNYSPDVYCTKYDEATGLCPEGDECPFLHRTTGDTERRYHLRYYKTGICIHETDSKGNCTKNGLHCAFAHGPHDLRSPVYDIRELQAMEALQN

Binder | binding signal [enrichment R]
B1 | 1.33
B2 | 1.03
B3 | 1.19
B4 | 0.955
B5 | 1.05
B6 | 1.4
B7 | 3.13
B8 | 1.27
B9 | 1.25
B10 | 1.05
B11 | 0.977
B12 | 0.371
B13 | 0.948
B14 | 1.12
B15 | 0.789
B16 | 1.41
B17 | 0.626
B18 | 2.09
B19 | 0.814
B20 | 0.445
B21 | 0.515
B22 | 1.19
